Some of the results follow.

These results are taken from the supplement of paper PMC11417369.

The test system of this experiment is PfAP2-HC AP2 domain (GST-tagged). Kind of experiment: gcPBM binding intensity (ln(normalized median fluorescence intensity)); higher = stronger DNA binding. The method in brief:
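The highest Masliner-normalised natural-log median intensity across replicate spots of either probe orientation is reported as binding intensity. GST-tagged P. falciparum DNA-binding domains expressed in E. coli were applied for 1 h to an Agilent 4 × 180k array of primer-extended double-stranded 36-bp intergenic genomic probes plus negative controls, and bound protein was detected with Alexa488 anti-GST antibody and scanned at 488 nm.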
In the case of “AGGTGAAAAATATATAATAATGTAACAAAAAAAAAT [XGTACX_negctrl_site394]”, the “gcPBM binding intensity (ln)” value is 9.76.

For the sequence “AACTATAACTAAAAAAATCACATAAAATATTTTATT [TGCATGCA_negctrl_site363]”, the “gcPBM binding intensity (ln)” value came to 9.46.

As for “TCGTGTTAAATTTTTACACACAAACTTGCAATAATT [CACACA_site3824]”, the “gcPBM binding intensity (ln)” value stood at 9.85.

As to “TGTTCTATTCTATTATTATTTACAAATTATAAATAA [GTGCAC_negctrl_site232]”, the “gcPBM binding intensity (ln)” value turned out to be 9.38.

As to “TATATATATTAGTGTGCACACTTTTTATTTTTATCC [CACACA_site8506]”, the “gcPBM binding intensity (ln)” value turned out to be 10.6.

With “ATATATTTATAATAGGTGCATATGTTTTATTTTTCC [GTGCAC_site9849]”, the “gcPBM binding intensity (ln)” value is 9.7.

Turning to “AGATATGTTTTTAATTGTACATAAATACACAAATAT [XGTACX_site5981]”, the “gcPBM binding intensity (ln)” value amounted to 9.52.

Turning to “TGTAATAAATAGTACACACACACATATATATATATT [CACACA_site1388]”, the “gcPBM binding intensity (ln)” value turned out to be 10.5.

For “AAAAAAAAAAAAAAAAAAAAAATACATATATATATA [CACACA_negctrl_site290]”, the “gcPBM binding intensity (ln)” value is 9.22.

Turning to “ATATGTGTGTGTATTTGTACCCAATTTTTATATATA [XGTACX_site4948]”, the “gcPBM binding intensity (ln)” value worked out at 10.3.

For the sequence AAAGAATTATATAAGGTGCACGAATGTTTCTTTAAT, the “gcPBM binding intensity (ln)” value turned out to be 9.78.

Take “ATATTTTTTTTTGTTAGTACTCATATTTGTAGTTTT [XGTACX_site7280]”: the “gcPBM binding intensity (ln)” value was 9.8.

As to “CATTTAAGACAAATTACACACGTATGCCAAATATAT [CACACA_site431]”, the “gcPBM binding intensity (ln)” value was determined as 9.79.

For TTTTTAATTTCAATGGTGCAGTAATAATATAATAGT, the “gcPBM binding intensity (ln)” value came to 9.5.

“AATATATATAATTATAGTACAGAAAATTAAAAAAGA [XGTACX_site2943]”: the “gcPBM binding intensity (ln)” value was 9.84.

Regarding “TCTTTAAATTTCTCAACACACAGTTATAAAAAATAA [CACACA_site2856]”, the “gcPBM binding intensity (ln)” value is 9.37.

On to “AACAATAAAAATAATTGTACAAGTTTAAAAAAAATT [XGTACX_site1987]”, for which the “gcPBM binding intensity (ln)” value was 9.65.

With “TATATCTTATTTAACACACACAAAGAAAATAGAAAA [CACACA_site3732]”, the “gcPBM binding intensity (ln)” value was 10.1.

Consider “TACAAGTATAAATAAGCACACATGTGGATATGTACA [CACACA_site4229]”, for which the “gcPBM binding intensity (ln)” value worked out at 10.

Consider “ATGAATCCTTAATATGAACACACAAATATATTACAC [CACACA_site7943]”, for which the “gcPBM binding intensity (ln)” value is 9.84.

“TTATTTCAAAGTAAATCAGTAAATATTTGTTTTCTT [CACACA_negctrl_site1572]”: the “gcPBM binding intensity (ln)” value was 9.45.

For the sequence “TTTTTTATTTATCCTATATATTACTAAATGAAGAAC [GTGCAC_negctrl_site333]”, the “gcPBM binding intensity (ln)” value is 9.18.

Consider “TCCTTATTTATATAATGTACTTTTTTTTTTCATTTT [XGTACX_site4275]”, for which the “gcPBM binding intensity (ln)” value was found to be 9.64.

Consider “GATAAAATAGGACCATATTCTTTAAAACGATAAAAT [XGTACX_negctrl_site405]”, for which the “gcPBM binding intensity (ln)” value was determined as 9.7.

As for “ATATATATATATTTATGTACATATACATAATGTATA [XGTACX_site6387]”, the “gcPBM binding intensity (ln)” value came to 9.57.

Take “TAAAGTTAAAAATTATGTACATATATATTGTATATT [XGTACX_site5528]”: the “gcPBM binding intensity (ln)” value stood at 9.65.

With “TAAGAAGTATTTTCCTGTACATATTTTATATGTATG [XGTACX_site4658]”, the “gcPBM binding intensity (ln)” value is 9.65.

In the case of “TTATTTTATATATCACGTACATAGTTGTCTTCTTTT [XGTACX_site2906]”, the “gcPBM binding intensity (ln)” value was determined as 9.78.

As to “AAAATATAAAATAATGCACACATAAACAAAAAATCA [CACACA_site8382]”, the “gcPBM binding intensity (ln)” value stood at 10.1.

In the case of “TACATATTTAAATACTGTACTCAAAAGAATTGTGCA [XGTACX_site2250]”, the “gcPBM binding intensity (ln)” value was 9.46.

Consider “ACTAATATGTATATATATATATATATATATATATAT [CACACA_negctrl_site141]”, for which the “gcPBM binding intensity (ln)” value turned out to be 9.58.

As to “ATCAAAAAAAAAAAAAGTACACAAAATTTTTTATTA [XGTACX_site7986]”, the “gcPBM binding intensity (ln)” value was 9.43.

Regarding “TATATGTGTGTTATATGTACTTATATATATATATAT [XGTACX_site5570]”, the “gcPBM binding intensity (ln)” value is 9.98.

For ATAATGAACAAAGTAGTGCACTTTCCTTATCTTTTC, the “gcPBM binding intensity (ln)” value stood at 9.71.

For “AAGGTTTAAAATTACTGTACAAATATAAATAAATAT [XGTACX_site3756]”, the “gcPBM binding intensity (ln)” value was determined as 9.57.

“GTTTATCACAGCCACGCACACATAATATCTGTATAT [CACACA_site5929]”: the “gcPBM binding intensity (ln)” value turned out to be 10.

In the case of “CTTATATTGTACAGTACACACCTTTATAATGTTATT [CACACA_site4280]”, the “gcPBM binding intensity (ln)” value was found to be 10.1.

Consider “GATTATTAATAGTAACGTACATATGTTATAAAATAT [XGTACX_site5277]”, for which the “gcPBM binding intensity (ln)” value is 9.75.

With “TATAGTATTCTAAATGCATGTAAATTATGTATATAT [TGCATGCA_site931]”, the “gcPBM binding intensity (ln)” value was determined as 9.71.

As for “AAATTCCACGAACACACACACATATAAATAAATAAA [CACACA_site6697]”, the “gcPBM binding intensity (ln)” value was 10.6.

Take “TAGTAAAAACCAAAATGTACATGTGCCATTTTTTTA [XGTACX_site2630]”: the “gcPBM binding intensity (ln)” value was 9.61.

For the sequence “TATATTATACTAAGAAGTACAATATTTTTATTGTAA [XGTACX_site2810]”, the “gcPBM binding intensity (ln)” value was found to be 9.34.

As for “ACATCAAGCAGACACACACACACACGCACACGCACA [CACACA_site6309]”, the “gcPBM binding intensity (ln)” value worked out at 11.2.

For the sequence “ACTATTCATGCATATACACACACATATATATATATT [CACACA_site9309]”, the “gcPBM binding intensity (ln)” value turned out to be 10.2.
